From PubChem BioAssay AID1346428 (National Center for Advancing Translational Sciences (NCATS), 2018)
About 1,200 (2.5%) of roughly 48,000 compounds were called active. Roughly 2% stayed inconclusive and do not appear here.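 The calls were made as follows: active = activation of at least 60% and not above a set upper limit (about 1 call in 100 departs from these limits); inconclusive = activation of 40% to 60%, or above that upper limit; inactive = activation under 40%.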 Some of the results follow.

These molecules were tested against Probable G-protein coupled receptor 32 (Homo sapiens) (UniProt O75388) (assay: qHTS for Agonists of Human Resolvin D1 Receptor DRV1). Details: CHO-K1 GPR32 beta-arrestin PathHunter luminescence, 90 min; at 76.9 µM; hits give high values; zero percent set by DMSO-only wells.
UniProt O75388, sequence (O75388 whole entry, looked up): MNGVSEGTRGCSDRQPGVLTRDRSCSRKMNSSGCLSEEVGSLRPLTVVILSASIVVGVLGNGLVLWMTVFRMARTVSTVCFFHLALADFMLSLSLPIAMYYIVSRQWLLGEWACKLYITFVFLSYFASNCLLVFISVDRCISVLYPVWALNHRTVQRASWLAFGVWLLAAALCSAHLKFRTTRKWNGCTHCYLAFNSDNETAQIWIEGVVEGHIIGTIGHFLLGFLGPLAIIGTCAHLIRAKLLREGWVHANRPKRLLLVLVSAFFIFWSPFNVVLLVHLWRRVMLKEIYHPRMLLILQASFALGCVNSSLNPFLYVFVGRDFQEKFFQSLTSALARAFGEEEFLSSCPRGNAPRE
Text: Endogenous resolution of inflammation is known to be transduced through various GPCRs and their natural mediators of lipid nature. Resolvin D1 (RvD1) is one of the active players in resolution of acute inflammation through regulation of anti-inflammatory pathways; it is known to enhance phagocytosis of human macrophages, limits neutrophils infiltration, etc. […] The search for GPR32-activating small molecules with anti-inflammatory effects similar to its natural omega-3 derivative ligand in order to use them as research tools for further studies of inflammation and its resolution was the goal of this screening project. For primary screening assay, we used CHO-K1 GPR32 beta-arrestin cell line (DiscoveRx, #93-0321C2A) and the PathHunter(R) beta-Arrestin Assay (DiscoveRx) which measures recruitment of beta-arrestin to the GPR32 and generates chemiluminescent signal. These engineered cells stably transfected with GPR32 co-express GPR32-fused small 42-amino acid fragment of beta-Gal called ProLinktrade mark, and […] -tagged beta-Arrestin fusion protein. When GPR32 is activated by a ligand, it stimulates binding of beta -Arrestin to ProLink-tagged GPR32, and two parts of beta-Gal complement forming a functional enzyme. Upon substrate (PathHunter(R) Detection reagent) addition, beta-Gal hydrolyzes it and generates a chemiluminescent signal.
The cells were thawed and plated in thawing media containing F-12 HAM (Invitrogen, #11765-054), 10% FBS (Invitrogen, #10082), 1x Glutamine, and 1x Pen/Strep onto the 175-mm flask for 24 hours. Then, thawing media was replaced with Growth media which contains 800microg/mL Geneticin (Invitrogen, #10131) and 300microg/mL Hygromycin B (Invitrogen, #10687) in addition to described above. For the assay, the cells were harvested at ~80% confluent stage with Cell Dissociation buffer (Gibco, #13151), and seeded at 2,500 cells/ 3microL/well in assay media (PathHunter(R) Cell Plating Reagent, DiscoverX, #93-0563R1B) using MultiDrop Combi dispenser (Thermo Scientific, Logan, UT) onto white solid bottom tissue culture-treated 1536-well plates (Greiner # 789173-F) and allowed to attach overnight at 37 degrees C, 95% humidity, 5% CO2, . Next, 23nL/well of compound solutions in DMSO were added with a Pin Tool (Kalypsis, San Diego, CA) to the assay plates. As the basal control (EC0), 23 nL/well of DMSO was used on each plate. The cells were incubated in the presence of compounds or DMSO for 90 minutes at 37 degrees C, 5% CO2. Subsequently, 1.5microL/well of PathHunter(R) Detection Reagent prepared per the manufacturer's instructions was added to the assay plates with BioRAPTR FRDtrade mark dispenser (Beckman Coulter, San Francisco, CA) and incubated for 1 hour at ambient temperature prior to the measurement of the luminescent signal on ViewLux(R) uHTS Microplate Imager (Perkin Elmer, Waltham, MA).

activation, inactive:
COc1ccc(Cl)cc1NC(=O)Cn1nc(C(F)(F)F)c2c1CCCC2 4.04%
Cc1cccc(NC(=O)C2CCCN(S(=O)(=O)c3ccc4c(c3)CCCC(=O)N4)C2)c1 (stereo not drawn) 13.7%
COCCCn1c(SCC(=O)Nc2ccc(F)cc2)nc2c(sc3ccccc32)c1=O -10.2%
CCOc1ccc(-n2c(SCC(=O)N3CCc4ccccc43)nc3c([nH]c4ccccc43)c2=O)cc1 -9.13%
COc1cccc2c1ncc1c(-c3ccc(C)cc3)nn(-c3cccc([N+](=O)[O-])c3)c12 -0.974%
CCC(=O)Nc1cc(-c2cccc(C)c2)nn1-c1ccccc1 -10.6%
Cc1cccc(-c2nc(SCC(=O)N3CCc4ccccc43)c3c(=O)n(C)c(=O)n(C)c3n2)c1 -7.19%
COc1ccc(N2CCN(Cc3nc4c(c(=O)[nH]c(=O)n4C)n3Cc3ccc(Cl)cc3)CC2)cc1 -9.56%
CCOC(=O)CNc1nc(Oc2ccc(=O)n(C)n2)nc(N(CC)CC)n1 9.27%
CCCN(Cc1cccs1)C(=O)Nc1ccc(OCC)cc1 -14.3%
COc1ccc(NC(=O)Cn2c(=O)c(-c3cc(C)ccc3NC(C)=O)nc3ccccc32)c(OC)c1 -5.76%
Cc1cc(C)cc(NC(=O)C(=O)NCC(c2ccc3c(c2)OCO3)N2CCN(C)CC2)c1 (stereo not drawn) -9.33%
Cc1cc(=O)[nH]c2nnc(SCC(=O)Nc3ccc(OC(F)(F)F)cc3)n12 39.9%
Cc1ccc(C2CCN(C(=O)c3cnn(-c4cccc(Cl)c4)c3C3CCN(C(=O)OC(C)(C)C)CC3)C2)cc1 (stereo not drawn) -20.8%
O=C(COc1ccccc1)NCc1ccc2c(c1)CCN2C(=O)c1ccc(Cl)cc1 0.0283%
COc1ccc(NC(=O)N(CCC(C)C)C(C)c2cccs2)c(OC)c1 (stereo not drawn) -21.8%
CC(C)Cn1c(=O)n(C)c(=O)c2[nH]cnc21 -5.17%
COc1ccc(OC)c(NC(=O)c2cc(-c3ccc(Cl)s3)nc3ccccc23)c1 -6.73%
COc1ccccc1CNC(=O)CCc1c(C)nn(-c2ccc(N3CCOCC3)nn2)c1C -18.4%
NCc1nc2cccnc2n1Cc1ccccc1Cl -5.06%
O=C(NCc1ccco1)c1ccc2c(c1)N(Cc1ccccc1)C(=O)c1ccccc1S2(=O)=O -19.3%
COCCNc1ncnc2c1c(-c1ccccc1)cn2-c1ccc(C)c(Cl)c1 -23.6%
CCCCOc1cc(CC2CNC(=O)N2)ccc1OC (stereo not drawn) 7.99%
COc1ccc(NC(=O)CSc2nc3c([nH]c4ccccc43)c(=O)n2-c2ccccc2)c(OC)c1 -25%
CCOc1ccc(NC(=O)Cn2c3ncccc3c(=O)n2-c2ccc(CC)cc2)cc1 -7.85%
COc1ccc(-n2ncc3c(NC(C)(C)CO)ncnc32)cc1 9.04%
Cc1nc2cccnc2n1C1CCN(S(C)(=O)=O)CC1 15.7%
Cc1cc(S(=O)(=O)C(CNC(=O)c2ccc(OC(C)C)cc2)c2cccs2)ccc1F (stereo not drawn) 1.23%
Cc1ccc(CNC(=O)c2oc3c(c2C)-c2nn(Cc4ccc(Cl)cc4)cc2CC3)cc1 -20.4%
CCN(CC)S(=O)(=O)c1ccc(NC(=O)NCc2noc3ccc(C)cc23)cc1 31.3%
COc1ccc(CNC(=O)Cn2nnc(-c3ccc(C(F)(F)F)cc3)n2)cc1 4.65%
CCOC(=O)c1ccc(N2C(=O)c3n[nH]c(C)c3C2c2cccc(Br)c2)cc1 (stereo not drawn) -23.2%
O=c1cc(-c2ccccc2)n2c(SCc3ccc(Cl)cc3)nnc2[nH]1 11.8%
COc1ccc(C(=O)c2cn(Cc3ccccc3F)c3cc4c(cc3c2=O)OCO4)cc1 7.91%
COc1ccccc1C(=O)Nc1ccc2oc(-c3cccc(Cl)c3Cl)nc2c1 -10%
CC(C)C(=O)NCC(c1ccc2c(c1)OCO2)N1CCN(c2ccccc2F)CC1 (stereo not drawn) -12.8%
COc1ccc(-n2c3c(cc(-c4nc(-c5ccc(C)cc5)cs4)c2=O)C(=O)CC(C)(C)C3)cc1 20.3%
CC1CCCN(C(=O)c2cc3c(=O)n(C)c4ccccc4c3s2)C1 (stereo not drawn) -0.534%
Cc1ccc2nc(N3CCC(C(=O)N4CCN(c5cccc(C)c5C)CC4)CC3)[nH]c2c1 24%
Cc1sc2c(c1C)c(=O)n(-c1ccc(Cl)cc1)c(=O)n2Cc1cc(=O)n2ccccc2n1 -0.232%
O=c1[nH]cnc2c1ncn2[C@@H]1O[C@H](CO)[C@@H](O)[C@H]1O -16.6%
CCOc1ccc(C(=O)NCc2nc3cccnc3n2Cc2ccc(F)cc2)cc1OCC -14%
COc1ccc(C2C(C(N)=O)=C(C)Nc3nc(SCc4ccccc4Cl)nn32)cc1OC (stereo not drawn) 16.7%
CCOC(=O)c1ccccc1NC(=O)CSc1nc2ccncc2[nH]1 3.74%
O=C(NCc1ccco1)c1ccc(Cn2c(SCc3ccc(F)cc3)nc3cccnc32)cc1 -21.9%
O=C(CCS(=O)(=O)c1cccc2nonc12)Nc1c(F)cccc1F 6.83%
CC1CCc2c(sc3nc(-c4cc5cc(Br)ccc5oc4=O)[nH]c(=O)c23)C1 (stereo not drawn) -4.65%
Cc1cc(C)cc(NC(=O)N2CCC3(CC2)Oc2ccccc2C(=O)N3Cc2ccccc2F)c1 -15.1%
COc1cccc(N2CCN(C(=O)c3cccc(-n4c(C)nc5cccnc54)c3)CC2)c1 40.2%
CCOC(=O)c1ccc(CN(Cc2ccc(F)cc2)S(=O)(=O)c2ccc(F)c(C(=O)Nc3ccc(Cl)cc3F)c2)cc1 -10.8%
CCOc1ccc(NC(=O)c2c(NCc3cccnc3)sc3c2CCCC3)cc1 -3.66%
COc1ccc(Br)c(C(=O)Nc2cc3c(cc2N2CCOCC2)n(C)c(=O)n3C)c1 0.0263%
C=Cc1ccc(Cn2c(C(=O)O)c(CNC3CCCCC3)c3ccc(C)cc32)cc1 -14.3%
